Reference: the supplement of paper PMC11417369
± gives the standard deviation of the averaged measurements. The list shows a part of the results.

What follows are sequences tested on PfAP2-G AP2 domain (GST-tagged) (assay: gcPBM binding intensity (ln(normalized median fluorescence intensity)); higher = stronger DNA binding).
Method in brief: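 GST-tagged P. falciparum DNA-binding domains, expressed in E. coli (about 25 μg on average), were applied for 1 h to an Agilent 4 × 180k array of primer-extended double-stranded 36-bp intergenic genomic probes plus negative controls. The binding buffer was 1× PBS with 1% milk, 0.2 mg/ml BSA, 0.5% salmon testes DNA and 0.03% Triton X-100. Bound protein was detected with Alexa488 anti-GST antibody and scanned at 488 nm. Binding intensity is the highest Masliner-normalised natural-log median intensity across replicate spots of either probe orientation.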

Row | Sequence | gcPBM binding intensity (ln)
1 | TTTTATTTGACAAGCACACACTTAAATATATTTATA [CACACA_site7557] | 10.3 ± 0.2
2 | TATATTTTAGTTAATGCATGTGTGCATCCATTTAAA [TGCATGCA_site887] | 9.89 ± 0.2
3 | ATACATATATATATATGTACACACATTAATAAAAAA [XGTACX_site6874] | 11.5 ± 0.93
4 | TACCAAAATAGACACACACACAAAATATGTAAATAT [CACACA_site6963] | 10.1 ± 0.18
5 | TATAAATAAATTTATACACACACACCCATATATATA [CACACA_site8183] | 10.1 ± 0.17
6 | AAAAAAAAAAGACACACACACAAATACAAATGGTAA [CACACA_site6906] | 10.05 ± 0.021
7 | TTTGTTATATTTAATACACACATATTATAAACCCAT [CACACA_site3716] | 10.3 ± 0.4
8 | ATAAAGCCATACAATACACACATTTTACATGGCTGT [CACACA_site5756] | 9.96 ± 0.085
9 | TAAAATTAGGAAATTGCACACAAAAAAAAACATATT [CACACA_site9349] | 10.17 ± 0.099
10 | ATATTTTATGTAAAGGTGCAAAACAACATTAAAAAA | 10.3 ± 0.23
11 | ACTACATAAAATGACACACACAAACTTTAAAATTTA [CACACA_site3474] | 10.3 ± 0.33
12 | CACCTGCACGATTGCACACAAATATGTTTTGAAGAT [CACACA_site2103] | 10.3 ± 0.15
13 | TATATTTGGAAACACACACACAAAAAAAAAAAAAAA [CACACA_site2474] | 9.9 ± 0.61
14 | ATATTTTCTAATCAATGTACTTATTCTACACATTAA [XGTACX_site5774] | 11.3 ± 0.92
15 | ACCCAATTTTTTAGTACACACATATAAATATATAAA [CACACA_site4944] | 11.6 ± 1.1
16 | AACACATACAGACACACACACAAAAAAAAAAAAAAA [CACACA_site6322] | 10.2 ± 0.73
17 | TTTTTTTTTTTTCACGTGCACTATACATATAAGTAA | 10.4 ± 0.47
18 | CTCTTGTCATTTTGCACACACACATGGATAGGTTAT [CACACA_site5655] | 10.4 ± 0.23
19 | AAACAAAAGTAGAAGGTAGAGTATTTTATATTTAAA [GTGCAC_negctrl_site503] | 9.68 ± 0.18

Row | Sequence | gcPBM binding intensity (ln)
20 | AAACCTTTAGAAAATCGTACAAAACATAACCACCTA [XGTACX_site1098] | 11.2 ± 0.71
21 | ATTTTTTTTTTTTGTTTTTTCTTACAAATTAAATGA [CACACA_negctrl_site1457] | 9.88 ± 0.16
22 | AAATAACTCATGGGTTGTACTTAAAAAAAAAAAGAT [XGTACX_site4168] | 11.3 ± 0.78
23 | TTAATCTAGAGAAATTGTACATTTTATTAACACAAT [XGTACX_site1190] | 10.8 ± 0.33
24 | ATAAAAGAAAACAATAGTACTTTAGTTTTTCTTTTT [XGTACX_site5686] | 10.7 ± 0.15
25 | ATATATACATTTCTATGTACATATGTATATATGTAT [XGTACX_site1522] | 11 ± 0.45
26 | ATATATCACATGAACATTAAAAAAAAAAAAGAGGGG [TGCATGCA_negctrl_site187] | 10.6 ± 0.52
27 | TAAAATGATAAATGAATGTGATCATTTTATAAAATA [CACACA_negctrl_site674] | 9.9 ± 0.042
28 | AATATTTATAAATTTACACACACACCGGTGAACATA [CACACA_site8579] | 10.35 ± 0.078
29 | TTTATACAATTAGACACACACAAAAAGTATAAATAT [CACACA_site6637] | 10.3 ± 0.16
30 | ATATCACATTCCACGGTACACACTAATAGAAAAATC [CACACA_site9204] | 11 ± 0.57
31 | GGAACATATGAACTCACACACATTTTCACTTAAATA [CACACA_site3684] | 10.2 ± 0.16
32 | TATTTTTAGAAAATAAAGAAGGAGAATTGAAAATAT [CACACA_negctrl_site361] | 9.93
33 | AAGAAAAGATATATATATAAATATATATATATATAT [TGCATGCA_negctrl_site353] | 9.73 ± 0.61
34 | ATTTATTTTTATCAAGCATGCATAAAAAATAAATTA [TGCATGCA_site440] | 9.84 ± 0.2
35 | TTTTATTTTGGAACGTGTACATATAATTATTTATTG [XGTACX_site8094] | 11.4 ± 0.79
36 | TTTAAACTAGAACAAGTGCAGATATGTATAATAATA | 10.1 ± 0.16
37 | ATACCTTCTTCATTCACACATATACGTAAAATGTTC [CACACA_site5657] | 10.4 ± 0.25
38 | AAAATATATACAAGCAAACACACGTAATATATATTA [CACACA_site2152] | 9.945 ± 0.021

Row | Sequence | gcPBM binding intensity (ln)
39 | GCATAAAATATGATCGCACACTGTTTAAAATACTTA [CACACA_site828] | 10.2 ± 0.21
40 | ATATTACTAATTAATGGTACACGTTATAATAAACTA [XGTACX_site7051] | 11.1 ± 0.68
41 | AGGTAGTTCTGTATCACACACATATAAATATAAATA [CACACA_site7110] | 10.2 ± 0.27
42 | ATAACAAATATGATAGCATGCTACATATTACAACTT [TGCATGCA_site524] | 9.71 ± 0.16
43 | AGAAGAAAAGAAATATGTACATAAACGTCTGAACTA [XGTACX_site1699] | 11.2 ± 0.68
44 | GTTCCATATATTACATGTACATATTTTTACATTTAA [XGTACX_site660] | 11.2 ± 0.72
45 | TGATTAATAGCAGGTAGTACTATAATAATATAAATA [XGTACX_site2776] | 11.4 ± 0.81
46 | TGACATAAATTTAATACACACACAAAGAAAAAAAAA [CACACA_site9354] | 10.4 ± 0.23
47 | TTTAAAAAAAAAAAAAAAAATTCTACATGTAATTTA [CACACA_negctrl_site1205] | 9.38 ± 0.028
48 | GTGTGTGTATATATTTGTACATATATTTAAACATAT [XGTACX_site1074] | 11.4 ± 0.71
49 | TATACATAAATTATATGTACTGAAAATACATAATTA [XGTACX_site3626] | 11 ± 0.76
50 | ATTCCCTTAAGAAACTGTACAAAACTTTCTTCGATT [XGTACX_site775] | 10.6 ± 0.33
51 | CACAGATATATACATACACACATATATACACATATA [CACACA_site6323] | 10.1 ± 0.11
52 | ATCGAGAAAAATAAAATAATACAATTTCTTTAAATA [XGTACX_negctrl_site162] | 9.56
53 | GGTAGGTGGATATATACACACATATATTATAGATAT [CACACA_site7021] | 10.3 ± 0.23
54 | AAAAAAAAAAAAGAAACACACACATTTGTATATAAT [CACACA_site8648] | 9.94
55 | GAAACATAAAAATATATTGAAATAGTATCATGGGTA [CACACA_negctrl_site352] | 10.2 ± 0.2
56 | TATAGTTATATTAGAAGTACTTCATTTTAACATATT [XGTACX_site7101] | 11.5 ± 1.2
57 | TTTTTTTTGTATTAATGTACATATAACTTTTTTTTT [XGTACX_site7903] | 11.1 ± 0.72
